The results in this text go back to the RNAGym collection of RNA variant scans (doi:10.1093/nar/gkz1192).

Read counts are not given, so values of variants with three or more changes are uncertain.

First the molecules themselves.
B1: CPEB3 Ribozyme (parent)
chain: UAACAGGGGGCCACAGCAGAAGCGUUCACGUCGCAGCCCCUGUCAGAUUCUGGUGAAUCUGCGAAUUCUGCUGUAUAUCUC

In the data set the parent is B1. Description: self-cleavage, relative activity (ratio to wild type); higher = more cleavage; in vitro, sequencing. The essentials: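 Barcoded CPEB3 ribozyme mutants, produced by rounds of error-prone PCR, self-cleaved while being transcribed with T7 RNA polymerase for 5 hours at 37°C and during a subsequent 15 min DNase I step before EDTA was added. Sequencing of template-switched cDNA on Illumina gave cleaved and total reads, and DNA sequencing assigned barcodes to variants. Each variant's relative activity is its cleaved/total read fraction divided by the unmutated ribozyme's fraction, averaged across three batches. A variant needed a minimum of 5 reads.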
G9U U49C A65G U67C: the self-cleavage turned out to be 0.31. Consider G9U A20G G30U, for which the self-cleavage stood at 0.19. The result for G10A A47U U60C A65G U69A reads 0.16; that for G8U U31C A35G C39U G53A A65U, 0.04.

For the variant G8U A35G U48C U58A U78C, the self-cleavage came out at 0.11. The result for G9U A13U A64U reads 0.06. Take G9A A15U G33A A56U U76C: the self-cleavage was found to be 0.05.

For the variant G9U U25C C29U U58C U72A, the self-cleavage came to 0.06. For G9U A13G U41A U51A, the self-cleavage was determined as 0.06. Turning to G9A C37U U49A U54C U74C, the self-cleavage amounted to 0.03. The result for G10A A13G A56G reads 0.05; that for G9A C29U A35C U41C A45C G70U, 0.03; that for G9A A13G U26C A47U A56G U69C A77U, 0.14.

For the variant G9A C32G A35U U41C, the self-cleavage amounted to 0.13. The figure for G9A C39A U60A C71G U80A is 0.03. The figure for G8U A20U U26C A45U U72C is 0.17; for G8U A28G U41C it is 0.13.

Turning to G9U U26A U54C C62U, the self-cleavage was 0.03. The figure for G9A U26C G42A U51C U54C A65U is 0.05; for G9A C11U U31C A35G A47G U51A U66C it is 0.04; for G10A A18G A45U U54A G63U it is 0.07. The result for G8C U51C U74A U78C reads 0.09. The figure for G9C U60C U72C U78A is 0.17; for G8U A15G U26C A65G U67C it is 0.04; for G10A A20G A35G C40U A47U it is 0.06.

On to G9A A20U A47U U67C, for which the self-cleavage came to 0.09. The result for G8U C23A U43C A45G reads 0.06. Regarding G9A U67C G70A U74A, the self-cleavage is 0.11. The figure for G9A A18U A75U is 0.03; for G8C U25C A35U it is 0.06.

Regarding G10A A20G U25C U78C, the self-cleavage was determined as 0.29.

Take G9U A21C G30A U43C: the self-cleavage amounted to 0.1.

In the case of G9A A13U A65G, the self-cleavage is 0.1. The figure for G9A U60A C62U is 0.09. The result for G9C A18C U41C U43C A64U U76A reads 0.39; that for G9U A21G G61A, 0.19; that for G8U A20U G30A A45U U54C, 0.3.

G10A A28G U74C: the self-cleavage is 0.2. The figure for G9U A18U A28G A56U is 0.14; for G9U A15U U58C it is 0.07; for G8U A18G A28G U31A it is 0.21.

As to G9U U31A A47G, the self-cleavage was found to be 0.07. Regarding G9A A13G U43C A45G U67C U72C, the self-cleavage was determined as 0.05. The result for G9A A13G G53A U58A reads 0.04; that for G9A A35G A56U A65G A75G, 0.06; that for G9A A35U A56G A57G, 0.16. The result for G8U A56G U74A reads 0.23; that for G9A C40U A45G U49G A65U, 0.05. As for G9A A21G U26C A35U, the self-cleavage worked out at 0.05.

Consider G10A A15G U41G A57C U72C, for which the self-cleavage was found to be 0.08. The result for G10A A35U A56G U60A U78A reads 0.2.

As to G9A A15C U58C, the self-cleavage turned out to be 0.11. The figure for G8U A35U A45C A57G is 0.13; for G10A C27U A57U it is 0.27. With G8U A28G U51A U60C, the self-cleavage was determined as 0.1. The result for G9C A35G U74C reads 0.57; that for G8U A18G A28U U54C, 0.2. The figure for G8U A18U A21G is 0.42. The figure for G9A U49A G52C is 0.11.

Take G9A C29U U78C: the self-cleavage was 0.41. For the variant G8U A21G U26C U51C, the self-cleavage amounted to 0.04. The result for G10A A13G A35U U41C reads 0.19; that for G9U A13U A20G U51C A56U, 0.07; that for G9U A15U U31C A45C U51C U78C, 0.17.

For G9A C27A A35G A45G U69C, the self-cleavage turned out to be 0.17. The figure for G9A A47G U76A is 0.14; for G9U U31C U48C it is 0.06; for G9C U26C A35G A56U U69A it is 0.07. G9U A56G U67C: the self-cleavage was determined as 0.12. The figure for G8U A20G A21G U26G U80C is 0.05. Regarding G9U A45G U49C U58C U67C U72A, the self-cleavage amounted to 0.06.

Turning to G9A U26C A47U U54A A56G, the self-cleavage was 0.05. The result for G9A A13U A20U U49C reads 0.13; that for G10A A15G C32A U58G, 0.05. The figure for G9A A20G A35U U43C U54A U69A is 0.07; for G9A U26C A28U U67C it is 0.03. The figure for G9A A18U A28G is 0.07; for G10A A21G U58C A64U it is 0.04. With G10A A15G A35C A56G U69A, the self-cleavage stood at 0.09. The figure for G8U G70U U76A is 0.14. The result for G8U A13G U25A reads 0.21; that for G9U A21G A35G U69A, 0.07; that for G9U C17G U25A U43C A45U U66C, 0.05. The result for G10A C29A U60C A65U reads 0.05. G8U G33A C38A U43C A47G U69A: the self-cleavage is 0.07. The result for G9U A15U A56G A57U reads 0.07; that for G9A U25C A28C, 0.14; that for G8U U41A U43A A45G C50A U54A, 0.04. The result for G9A A45G A56U A65G U72A reads 0.06. Regarding G9C U49C U66C A75U U78C, the self-cleavage is 0.12. In the case of G9A U31C C40U U51A A56G A64U U72A, the self-cleavage was 0.03. The result for G9C C38U U51C U76C reads 0.09.

As to G10A A21G G36A, the self-cleavage came out at 0.22.

Take G10A C14U A56G G61A A64G: the self-cleavage was 0.06. The figure for G8U A21G C27A A64U U69C U76C is 0.03; for G9U G16U A20G A35U G63U U76C it is 0.19. The figure for G10A A15C U41A U60C A65G U78C is 0.04. The result for G9A U43C U72C U78C reads 0.34.

As for G9U A28G U41C, the self-cleavage was 0.17. The result for G10A A13U A18G A57G U72A reads 0.18. G9U C44U A56G U58G A77G: the self-cleavage is 0.13. As for G9A G24A A56U, the self-cleavage was found to be 0.1. The result for G9A A20G U25C U74C U78C reads 0.04; that for G10A A15U C27A A28G U41C U54A, 0.18. Turning to G10A A18G C29U A45G G63A U80C, the self-cleavage worked out at 0.04. The result for G8U U60A U72A reads 0.1. The result for G10A A13U U31G C44U U72C U78C reads 0.04. Regarding G8U U60C U80C, the self-cleavage was determined as 0.16. The result for G8U U60C U80A reads 0.21; that for G8U G16C C29U C34U U58C G70A, 0.03. Take G9C U26G U31C U58A: the self-cleavage is 0.06. The result for G10A C32A U54A U69C U74A reads 0.1.

Take G8C G24C U41C: the self-cleavage turned out to be 0.26. The figure for G9A U43C A64U U72A is 0.14. With G9A U51C U54G A57G U72C, the self-cleavage stood at 0.07.

On to G10A A21U A35U U49A U54A, for which the self-cleavage came to 0.11.

Turning to G10A A20G A77G, the self-cleavage was 0.49. On to G9A C23A A28G U51A U58C, for which the self-cleavage is 0.04. The result for G8U A18G C34A U43C G70A reads 0.13; that for G10A A13U U31C U78A, 0.3. The result for G9A A20U C27U U49C reads 0.25. The result for G10A A45G U54C U60G U67C reads 0.09; that for G10A A28G U41C A45C C50U, 0.08. As for G9U G33U C50G, the self-cleavage was 0.04. The result for G9U C12U A18G A35G reads 0.08; that for G9U A35C A45G U49C, 0.17; that for G9A U41C C44A U58G, 0.15. The result for G9A U41C A56G reads 0.09; that for G9U C40A A56G A77G, 0.31. The result for G9A U25C G42C U67A reads 0.09; that for G8C C14A A28G C38G A45G U51A A64U, 0.03. As for G9A A45U U54A A56G, the self-cleavage came out at 0.08. The result for G8U A20G U25C G33U A65C reads 0.08; that for G9U A65G U78C, 0.1; that for G9C A21G G33A U54C U66C G73A, 0.04. The figure for G10A C39U A56U is 0.13; for G9A A35G U67C it is 0.35. The figure for G9U A28G A57G U58C is 0.09. For the variant G8U A13G A20G U25C G52U, the self-cleavage is 0.04. The figure for G9A A13U A20U C29U A45U is 0.05; for G8U C38A A65U it is 0.11. As for G8U A15G C23U G30A G36U G55A, the self-cleavage turned out to be 0.04.

In the case of G9A A13G U26C A77G, the self-cleavage amounted to 0.2. The result for G10A A18U U43A U69C reads 0.37; that for G8C U51A A64G, 0.17. The figure for G8U A18G U60C is 0.19; for G10A C14U U25G U58C U66A G73A it is 0.04. Turning to G9A A13U A47U U72A U74A U78C, the self-cleavage is 0.04.

For G9A A13G A35G A64G, the self-cleavage stood at 0.07. On to G10A A21G U58C, for which the self-cleavage came to 0.08. The figure for G8C C17G A18G U25A A47G A64G is 0.06; for G9A U25A U31C A57G it is 0.37. With G8C C40G A45G U60C U74C, the self-cleavage came to 0.11. The result for G10A A35C U41C U49A A64G U66G U80C reads 0.04; that for G8U U43C A45G A77C, 0.12; that for G10A A15U U25C, 0.13. With G10A A15U U80C, the self-cleavage is 0.07. The result for G8U G16U G24C reads 0.07. The result for G10A A20G U43C A45U A56G A64U C68U reads 0.23; that for G8U U41C A56G U60C, 0.06.

For G9C A20U U72C U80C, the self-cleavage worked out at 0.04. The figure for G8U A18C U26A U41C U51C U69C is 0.05; for G9U A20U A64G U78A it is 0.07; for G10A A18U G22A U31C U49C U60A it is 0.04. The figure for G9A A20G U25C U78C is 0.31; for G10A A15U A47G U49C it is 0.04; for G9U U58C A75G it is 0.09.
